In PubChem BioAssay AID1508624 (National Center for Advancing Translational Sciences (NCATS), 2021):
Hit rate of the full screen: of about 48,000 compounds, about 120 (0.25%) were called active. Another 4% or so got no clear call; they are omitted. Calls follow the shape of the dose curve; as a rule, active = well fitted activation curve with a large enough effect; inconclusive = small, poorly fitted or top-dose-only effect, or another doubt; inactive = no such curve, though single readings can be large or run the other way. The list shows a part of the results.

Assay: Primary qHTS for Identification of Small Molecule Activators of Huntingtin-Antisense Promoter Activity; also: nearly all actives have a fitted effect of over 55% in size
Details: HEK293 HTT-AS promoter firefly luciferase reporter, 24 h; series mostly up to 57.5 µM; activity change, positive = activation: at the top concentration
Method in brief: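 Luminescence was read after Dual-Glo reagent and a 10 min room-temperature incubation. Values were normalized to vehicle (0% activity) and zero RLU (-100% activity). Reporter HEK293 cells had been exposed to compounds (up to 57.5 uM final) for 24 h.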

Activity change, positive = activation, inactive:
Cc1ccccc1CNC(=O)c1ccc2c(c1)c(C)c(C)n2C 0.753%
CN(C)c1ccc(CNC(=O)c2ccc(Cn3c(SCc4ccccc4)nc4cccnc43)cc2)cc1 7.88%
Cc1ccc(Cl)cc1NC(=O)C1CCN(c2nnc(C)c3c(C)n(-c4ccccc4)nc23)CC1 -0.767%
CCc1ccc(CNC(=O)c2cnc3sc(N4CCCC4)nn3c2=O)cc1 0.497%
Cc1ccccc1Cn1nnc2c(=O)[nH]c(C3CCN(C(=O)c4ccc(F)cc4)CC3)nc21 -27.3%
Cc1cc(C)c(Cn2c3ccccc3c3cnn(CC(=O)NCc4cccs4)c(=O)c32)c(C)c1 -15.5%
Cc1cccc(N(C)c2nc3ccccc3c3nnc(C)n23)c1 -22.1%
CCOc1ccc(C(=O)Cn2c(=O)n3nc(CCn4nc(C)cc4C)nc3c3cc(OC)c(OC)cc32)cc1 -18.8%
Cc1ccccc1N1CCN(S(=O)(=O)c2nnc(NC(=O)c3ccc(C(C)C)cc3)s2)CC1 -20.1%
COc1cc(NC(=O)c2cc(C3CC3)nc3c2c(C)nn3-c2ccccc2)cc(OC)c1 -34.4%
COC(=O)Cn1c(=O)c2cccn2c2ccc(F)cc21 -14.7%
CCCCCn1c(NCc2ccc(OC)cc2)nc2ccccc21 -38.1%
CCS(=O)(=O)N1CCCC(C(=O)NCCOC)C1 (centres undefined) -7.28%
Cc1ccc(NC(=O)CSc2nnc(-c3ccc([N+](=O)[O-])cc3)o2)c(C)c1 4.11%
Cc1ccc(C(=O)c2cn(CC(=O)Nc3ccc(C(C)C)cc3)c3nc(C)ccc3c2=O)cc1 -9%
Cc1cc(C)n(-c2nc3ccccc3nc2Nc2ccc(N(C)C)cc2)n1 3.67%
COc1ccc(-n2nc(C(=O)Nc3ccccn3)c3c4ccccc4n(C)c3c2=O)cc1 -8.99%
COc1ccccc1OC(C)C(=O)Nc1cccc(-c2nc3ccccc3s2)c1 (centres undefined) 9.12%
CCOC(=O)c1ccc(NC(=O)c2cnc3c(-c4ccc(F)cc4)c(C)nn3c2C)cc1 -1.04%
CCOc1ccc(-c2nc3c(c(SCC(=O)Nc4ccccc4C)n2)Cc2ccccc2O3)cc1 13.4%
Cc1ccccc1NC(=O)CC(NCc1cccnc1)C(=O)O (centres undefined) -0.616%
Cc1cc(C)cc(NC(=O)Cn2c(-c3cncs3)nc3ccccc32)c1 -16.9%
COc1ccc(NC(=O)CN2C(=O)CCn3nc(-c4cccn4C)cc32)cc1Cl -21.9%
O=S(=O)(c1ccc(-c2cc(C(F)(F)F)on2)s1)N1CCN(c2ccccc2F)CC1 -10.6%
COC(=O)c1ccccc1NC(=O)c1cc(-c2ccccc2O)no1 -21.6%
CC(=O)Nc1nonc1-c1nnc(SCC(=O)Nc2ccc(C)cc2)n1-c1ccccc1 -14.3%
CCOC(=O)c1sc2cccc(F)c2c1S(=O)(=O)NCc1ccccc1Cl -29.1%
COc1ccc(-c2cc(-c3ccccc3)c(C#N)c(SCC(O)CS(=O)(=O)Cc3ccc(Cl)cc3)n2)cc1 (centres undefined) -15.7%
O=C(CS(=O)(=O)c1cccc2nsnc12)N1CCN(c2cccc(Cl)c2)CC1 -18.1%
CCCN1CCN(c2ncnc3sc(C(=O)Nc4ccc(C(C)C)cc4)c(C)c23)CC1 -8.91%
COc1cc(SC)ccc1C(=O)Nc1ccc(S(=O)(=O)Nc2nccc(C)n2)cc1 1.32%
COc1cccc(N2CCN(C(=O)c3ccc(C)c(NC(=O)c4nsc5ccccc45)c3)CC2)c1 3.06%
Cc1ccc(C(c2sc3nc(-c4ccco4)nn3c2O)N2CCCC2)cc1 (centres undefined) -6.68%
Cc1ccc(N(CC(=O)NCCc2ccc(Cl)cc2)S(=O)(=O)c2c(C)noc2C)cc1 -30.8%
COc1ccc(CN2CCc3c(c(=O)n4ncc(C(=O)N5CCN(c6ccccc6OC)CC5)c4n3C)C2)cc1 -87.6%
Cc1cccc(NC(=O)Cn2nnc(-c3nc(-c4ccncc4)no3)c2N)c1 3.82%
CC(C)OC(=O)C(C)(C)Oc1ccc(C(=O)c2ccc(Cl)cc2)cc1 -12.1%
Cc1ccc(NC(=O)CN2C(=O)c3ccccc3Sc3ccc(C(=O)N4CCOCC4)cc32)cc1F -28.3%
CCc1ccc(-n2c(=O)c3c4c(sc3n(CC(=O)c3ccc(F)cc3)c2=O)CCC4)cc1 -7.14%
COc1ccc(-c2ccc3c(N)c(C(=O)c4ccc(OC)c(OC)c4)sc3n2)cc1 -14.4%
CCC(C)NC(=O)CCCN1C(=O)CCn2nc(-c3cccn3C)cc21 (centres undefined) 8.18%
CCc1cccc(NC(=O)COC(=O)c2cn(CC)c3nc(C)ccc3c2=O)c1 -2.35%
COc1ccc(CNC(=O)c2ccc(-c3nc(CSc4ccccc4)c(C)o3)cc2)cc1OC 6.33%
COc1ccc(CNC(=O)CSCc2nc(-c3ccccc3C)oc2C)cc1 -8.13%
CCCc1cc(=O)[nH]c(SCC(=O)N2CCN(c3ccccc3)CC2)n1 -23.5%
COc1ccccc1C(=O)Nc1ccccc1OCc1cc(=O)n2c(C)csc2n1 2.52%
CC(C)c1nn2c(=O)cc(COC(=O)c3ccc(NC(=O)COc4ccccc4)cc3)nc2s1 -2.5%
CCN(CC)S(=O)(=O)c1cccc(C(=O)Nc2ccccc2C(=O)Nc2ccc(Cl)cc2)c1 -19.6%
Cc1ccc(-n2c(/C=C/c3c(C)n(C)c4ccccc34)nc3ccccc3c2=O)cc1 19.2%
Cc1ccc(C)c(NS(=O)(=O)c2cc3c(cc2C)n(C)c(=O)c(=O)n3C)c1 -12.7%
CCOC(=O)c1c(NC(=O)Cc2coc3cc(C)cc(C)c23)sc2c1CCC2 -16.6%
CC(=O)c1ccc(NC(=O)c2cc(C)nn2-c2ccccc2)cc1 9.78%
COCCN(CCOC)S(=O)(=O)c1ccc(C(=O)Nc2sc3c(c2C(=O)OC)CCN(C)C3)cc1 -11.4%
Cc1ccc(NC(=O)c2cc(S(=O)(=O)N3CCC4(CC3)OCCO4)ccc2F)cc1Cl -28.9%
CCOc1cccc(C(=O)Nc2ccc(-c3nc4ncccc4o3)cc2C)c1 14.3%
CCOC(=O)c1ccccc1NC(=O)c1sc2nc3n(c(=O)c2c1C)CCCCC3 -12.1%
CN(C)S(=O)(=O)N(CC(=O)NCCSCc1c(F)cccc1Cl)c1ccccc1 -20.9%
COC(=O)c1c(NC(C)=O)c2c3c(sc2n1Cc1cc(C)ccc1C)CCCC3 -7.73%
CCCN1CCN(CCCNC(=O)c2cc3c(=O)n(CC)c4ccccc4c3s2)CC1 -10.7%
O=c1[nH]c(SCc2c(F)cccc2Cl)nc2c1CCC2 -13.4%
Cc1ccc(-n2c(SCc3ccccc3F)nc3[nH]ncc3c2=O)cc1Cl -37%
CCc1cccc(NC(=O)Cn2c(C(=O)OC)cc3sc(Cl)cc32)c1 -5.82%
CCN(CC)CCNC(=O)C1CCN(C(=O)c2cnn(-c3ccccc3)c2-n2cccc2)CC1 -7.45%
COCCc1ccccn1 -10.9%
Cc1ccc(NC(=O)CSc2nc(=O)cc(N)n2-c2ccccc2)cc1 -14.2%
Cc1ccc2nc(NC(=O)CSc3[nH]c(=O)ncc3C)sc2c1 26.8%
CCOC(=O)N1CCc2c(sc3c2C(=O)NC(c2ccc(N(C)C)cc2)N3)C1 (centres undefined) -28.1%
CC[C@H]1OC(=O)[C@H](C)[C@@H](O[C@H]2C[C@@](C)(OC)[C@@H](O)[C@H](C)O2)[C@H](C)[C@@H](O[C@@H]2O[C@H](C)C[C@H](N(C)C)[C@H]2O)[C@](C)(O)C[C@H](C)C(=NOCOCCOC)[C@H](C)[C@@H](O)[C@]1(C)O -17.8%
CCCCOc1ccc(C2c3c(oc4ccc(C)cc4c3=O)C(=O)N2CCCN(C)C)cc1OCC (centres undefined) 1.39%
CNC[C@@H](O)[C@@H](O)[C@H](O)[C@H](O)CO 0.694%
CC(=O)NCCNC(=O)CCCn1c(=O)[nH]c2ccsc2c1=O 4.37%
CC(=O)Nc1ccc(/C=C/c2noc(-c3ccccc3O)n2)cc1 29.5%
CCOC(=O)CSc1nc(-c2ccc(OCC)cc2)cc(C(F)(F)F)c1C#N -7.52%
CC(=O)c1ccc(N2CCN(S(=O)(=O)c3cc4[nH]c(=O)c(=O)[nH]c4cc3C)CC2)cc1 4.45%
COc1ccccc1CNC(=O)C(=O)NCC(c1cccs1)S(=O)(=O)c1ccccc1 (centres undefined) -34.1%
CCc1nnc(NC(=O)c2cc(=O)c3cc(C)ccc3o2)s1 6.87% [at 11.5 µM, percent change from vehicle, -100% = no light]
CCN1C[C@H](C)n2c(c(O)c3c(=O)n(Cc4ccc(F)c(Cl)c4)nc(C(=O)NC)c32)C1=O 17.6%
Cc1ccc(C)c(N2CCN(C(=O)Cn3cnc4onc(-c5ccc(F)cc5)c4c3=O)CC2)c1 -12.5%
O=C(O)c1ccccc1S -5.62%
Cc1ccc2oc(=O)c3cc(C(=O)NCCCOC(C)C)sc3c2c1 2.81%
COc1ccc(C(=O)c2oc3ccccc3c2NC(=O)c2cc(=O)c3ccc(C)cc3o2)cc1Cl -18%
Cc1ccc(S(=O)(=O)CC(=O)Nc2nc3c(C)cc(C)cc3s2)cc1 -10.7%
Cc1cccc(C(=O)Nc2nnc(S(=O)(=O)N(C)Cc3ccccc3)s2)c1 -16.8%
CCOc1ccc(-c2cccc(NS(=O)(=O)c3ccc(F)cc3F)c2)nn1 -10.7%
COc1ccc(-c2noc(CNC(=O)c3ccccc3Br)n2)cc1 -22.2%
COc1cccc(NC(=O)c2cccc3c(=O)c4c([nH]c23)CCCC4)c1 -36.6%
CCCOc1ccc(C2c3c(-c4ccccc4O)n[nH]c3C(=O)N2CCc2ccccc2)cc1OCC (centres undefined) -32.7%
CCOc1ccc2ncc3c(-c4ccc(C)cc4)nn(-c4cccc(F)c4)c3c2c1 -13.6%
CCOc1ccc(OCC)c(NC(=O)c2cc(S(=O)(=O)N3CCc4ccccc43)cn2C)c1 -21.6%
CC(=O)c1c(C)c2cnc(Nc3ccc(N4CCNCC4)cn3)nc2n(C2CCCC2)c1=O -31.4%
COc1ccc(-c2nc3c(c(SCC(=O)N4CCCCC4)n2)Cc2cc(C)ccc2O3)cc1 4.33%
Cc1ccc(S(=O)(=O)NCC(c2ccco2)N2CCOCC2)cc1 (centres undefined) -12.1%
O=S(=O)(c1cccc(Cl)c1)c1nnn2c1nc(NCc1ccc3c(c1)OCO3)c1sccc12 -37.5%
CCS(=O)(=O)N1CCCc2cc(C(=O)Nc3cccc(C(C)=O)c3)ccc21 -29.7%
